According to a collection of fitness landscapes (doi:10.1016/j.celrep.2020.107928):
In all, about 81,000 sequences were measured (“one-hybrid fitness for binding parS DNA”: median about -0.17, highest 2% from about 0.51 on). This is one part of the list.

B1: Caulobacter ParB omega fusion; a variant is named by its letters at X, in order, B8GW30 (parent)
chain: MESVVVGEPGMSEGRRGLGRGLSALLGEVDAAPAQAPGEQLGGSREAPIEILQRNPDQPRRTFREEDLEDLSNSIREKGVLQPILVRPSPDTAGEYQIVAGERAWRAAQRAGLKTVPIMVRELDDLAVLEIGIIENVQRADLNVLEEALSYKVLMEKFERTQENIAQTIGKSXSHVANXMRLLXLPDEVQSYLVSGELTAXHARAIAAAADPVALAKQIIEGGLSVRETEALARKAPNLSAGKSKGGRPPRVKDTDTQALESDLSSVLGLDVSIDHRGSTGTLTITYATLEQLDDLCNRLTRGI

Variants of: B1
Assay: one-hybrid fitness for binding parS DNA (scaled: cognate 1, non-cognate 0); higher = stronger binding
Conditions: with parS DNA site
Summary of the method: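 Caulobacter ParB libraries with four specificity codons randomised were screened by bacterial one-hybrid selection in the E. coli USO strain, using a HIS3 reporter whose site lies 19 bp from the promoter. Selection ran for 48 hours at 37°C on M9 lacking histidine, with 0.1 mM IPTG and 5 mM 3-AT. Plasmids were Illumina-sequenced before and after selection, three replicate libraries were pooled, and variants with under 10 reads were dropped. Fitness is the log change in each variant's read ratio to wild type, rescaled against the cognate and non-cognate sites.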

| Variant | one-hybrid fitness for binding parS DNA |
| --- | --- |
| SMNR | ≤ 0.2 |
| WPVT | ≤ 0.2 |
| NFAL | ≤ 0.2 |
| VAPD | ≤ 0.2 |
| IANP | ≤ 0.2 |
| AYVA | ≤ 0.2 |
| SKKS | ≤ 0.2 |
| LSCL | ≤ 0.2 |
| WSQR | ≤ 0.2 |
| GPKN | ≤ 0.2 |
| REIF | ≤ 0.2 |
| EIGE | ≤ 0.2 |
| RFQM | 0.257 |
| AFVS | ≤ 0.2 |
| KDYR | ≤ 0.2 |
| EARI | ≤ 0.2 |
| LSYW | ≤ 0.2 |
| GATY | ≤ 0.2 |
| PLMS | ≤ 0.2 |
| QIVS | ≤ 0.2 |
| LKMK | ≤ 0.2 |
| HCSC | ≤ 0.2 |
| KTIQ | ≤ 0.2 |
| DYAL | ≤ 0.2 |

| Variant | one-hybrid fitness for binding parS DNA |
| --- | --- |
| SAPS | ≤ 0.2 |
| PRDH | ≤ 0.2 |
| LPPP | ≤ 0.2 |
| DWTT | ≤ 0.2 |
| AHTT | ≤ 0.2 |
| EIAY | ≤ 0.2 |
| PYLS | ≤ 0.2 |
| VFIR | ≤ 0.2 |
| AWAM | ≤ 0.2 |
| FAEL | ≤ 0.2 |
| MRKR | ≤ 0.2 |
| GART | ≤ 0.2 |
| YNMR | ≤ 0.2 |
| DYTC | ≤ 0.2 |
| AVGE | ≤ 0.2 |
| NITC | ≤ 0.2 |
| LYKL | ≤ 0.2 |
| CENT | ≤ 0.2 |
| LQNR | ≤ 0.2 |
| RFQC | 0.925 |
| INEI | ≤ 0.2 |
| WESI | ≤ 0.2 |
| YTIN | 0.217 |
| GCMS | ≤ 0.2 |

| Variant | one-hybrid fitness for binding parS DNA |
| --- | --- |
| PMGH | ≤ 0.2 |
| PFTP | ≤ 0.2 |
| QTID | ≤ 0.2 |
| LSET | ≤ 0.2 |
| PPNV | ≤ 0.2 |
| AMPI | ≤ 0.2 |
| QRQQ | ≤ 0.2 |
| PCDS | ≤ 0.2 |
| QEDC | ≤ 0.2 |
| DAAR | ≤ 0.2 |
| TPVV | ≤ 0.2 |
| HRRM | ≤ 0.2 |
| HERF | ≤ 0.2 |
| RAHP | 0.241 |
| VQSY | ≤ 0.2 |
| KSLR | ≤ 0.2 |
| RMEC | 0.878 |
| HTMR | ≤ 0.2 |
| NIVQ | ≤ 0.2 |
| RFLD | ≤ 0.2 |
| GRRI | ≤ 0.2 |
| HRFV | ≤ 0.2 |
| THAC | ≤ 0.2 |
| PQWS | ≤ 0.2 |

| Variant | one-hybrid fitness for binding parS DNA |
| --- | --- |
| TQAD | ≤ 0.2 |
| RYPI | ≤ 0.2 |
| LIFD | ≤ 0.2 |
| APLG | ≤ 0.2 |
| KNIG | ≤ 0.2 |
| NEGA | ≤ 0.2 |
| LGVC | ≤ 0.2 |
| GAMY | ≤ 0.2 |
| NYAI | ≤ 0.2 |
| PGLI | ≤ 0.2 |
| VANL | ≤ 0.2 |
| PRAH | ≤ 0.2 |
| QPGW | ≤ 0.2 |
| EAIS | ≤ 0.2 |
| LQDR | ≤ 0.2 |
| YLKY | ≤ 0.2 |
| WETF | ≤ 0.2 |
| QTDY | ≤ 0.2 |
| KMKP | ≤ 0.2 |
| QTWN | ≤ 0.2 |
| LKIL | ≤ 0.2 |
| AKYY | ≤ 0.2 |
| LASN | ≤ 0.2 |
| CFWR | ≤ 0.2 |

| Variant | one-hybrid fitness for binding parS DNA |
| --- | --- |
| RFYG | 0.899 |
| TSHT | ≤ 0.2 |
| ENPG | ≤ 0.2 |
| VPLT | ≤ 0.2 |
| FTAD | ≤ 0.2 |
| FMNT | ≤ 0.2 |
| YPVW | ≤ 0.2 |
| QYPD | ≤ 0.2 |
| ELPT | ≤ 0.2 |
| CRSC | ≤ 0.2 |
| DFQR | ≤ 0.2 |
| SLVR | ≤ 0.2 |
| CCLA | ≤ 0.2 |
| QHTR | ≤ 0.2 |
| VFRV | ≤ 0.2 |
| HCPS | ≤ 0.2 |
| CTNR | ≤ 0.2 |
| RSTW | 0.219 |
| TCGA | ≤ 0.2 |
| CRLN | ≤ 0.2 |
| IKSY | ≤ 0.2 |
| YNLC | ≤ 0.2 |
| FMRR | ≤ 0.2 |
| QQLV | ≤ 0.2 |

| Variant | one-hybrid fitness for binding parS DNA |
| --- | --- |
| CYRY | ≤ 0.2 |
| HASF | ≤ 0.2 |
| IMET | ≤ 0.2 |
| QGCT | ≤ 0.2 |
| RSRM | 0.365 |
| LFSV | ≤ 0.2 |
| GISR | ≤ 0.2 |
| QTKF | ≤ 0.2 |
| PHLC | ≤ 0.2 |
| YCKR | ≤ 0.2 |
| MRMC | ≤ 0.2 |
| VYQG | ≤ 0.2 |
| SCSK | ≤ 0.2 |
| QEEM | ≤ 0.2 |
| TYAN | ≤ 0.2 |
| IQST | ≤ 0.2 |
| SNIT | ≤ 0.2 |
| DDTA | ≤ 0.2 |
| THYC | ≤ 0.2 |
| VRHS | ≤ 0.2 |
| VGST | ≤ 0.2 |
| YPWG | ≤ 0.2 |
| IKTR | ≤ 0.2 |
| TVKF | ≤ 0.2 |

| Variant | one-hybrid fitness for binding parS DNA |
| --- | --- |
| KWDR | ≤ 0.2 |
| DYCR | ≤ 0.2 |
| KDDR | ≤ 0.2 |
| MTQT | ≤ 0.2 |
| RFQI | ≤ 0.2 |
| MQPG | ≤ 0.2 |
| LFYR | ≤ 0.2 |
| VDYC | ≤ 0.2 |
| WSTR | ≤ 0.2 |
| CVHR | ≤ 0.2 |
| HTGK | ≤ 0.2 |
| HSTW | ≤ 0.2 |
| VKWL | ≤ 0.2 |
| LMKQ | ≤ 0.2 |
| LGEA | ≤ 0.2 |
| EHDG | ≤ 0.2 |
| PCCA | ≤ 0.2 |
| NQQG | ≤ 0.2 |
| PIRP | ≤ 0.2 |
| AHLK | ≤ 0.2 |
| VPKM | ≤ 0.2 |
| VRKC | ≤ 0.2 |
| QGAL | ≤ 0.2 |
| FLRR | ≤ 0.2 |

| Variant | one-hybrid fitness for binding parS DNA |
| --- | --- |
| SMGT | ≤ 0.2 |
| QDSI | ≤ 0.2 |
| QVLR | ≤ 0.2 |
| PTVK | ≤ 0.2 |
| EEPS | ≤ 0.2 |
| EHMY | ≤ 0.2 |
| WAWR | ≤ 0.2 |
| PKNV | ≤ 0.2 |
| SVAG | ≤ 0.2 |
| DTSC | ≤ 0.2 |
| CSAR | ≤ 0.2 |
| SKSY | ≤ 0.2 |
| IKFC | ≤ 0.2 |
| NAGI | ≤ 0.2 |
| SSRE | ≤ 0.2 |
| TNDE | ≤ 0.2 |
| MDIK | ≤ 0.2 |
| LALN | ≤ 0.2 |
| HELG | ≤ 0.2 |
| NNMR | ≤ 0.2 |
| VQAT | ≤ 0.2 |
| MTRH | ≤ 0.2 |
| LQHS | ≤ 0.2 |
| MESW | ≤ 0.2 |

| Variant | one-hybrid fitness for binding parS DNA |
| --- | --- |
| WQRW | ≤ 0.2 |
| TRGS | ≤ 0.2 |
| FLSR | ≤ 0.2 |
| VRTW | ≤ 0.2 |
| AIRC | ≤ 0.2 |
| LSYV | ≤ 0.2 |
| QQCY | ≤ 0.2 |
| ETSG | ≤ 0.2 |
| KRVT | ≤ 0.2 |
| RQFF | ≤ 0.2 |
| PWTP | ≤ 0.2 |
| NWPS | ≤ 0.2 |
| SSCP | ≤ 0.2 |
| ITTK | ≤ 0.2 |
| ARFC | ≤ 0.2 |
| CESW | ≤ 0.2 |
| AQEM | ≤ 0.2 |
| CKTL | ≤ 0.2 |
| HHSE | ≤ 0.2 |
| VQLR | ≤ 0.2 |
| YKIG | ≤ 0.2 |
| QCAD | ≤ 0.2 |
| TNHG | ≤ 0.2 |
| PWLL | ≤ 0.2 |

| Variant | one-hybrid fitness for binding parS DNA |
| --- | --- |
| IPHF | ≤ 0.2 |
| IVQA | ≤ 0.2 |
| PNFG | ≤ 0.2 |
| ERMR | ≤ 0.2 |
| ALQD | ≤ 0.2 |
| SRTP | ≤ 0.2 |
| PLSH | ≤ 0.2 |
| RYIP | ≤ 0.2 |
| RRKI | 0.313 |
| LVRY | ≤ 0.2 |
| RCDI | ≤ 0.2 |
| AESG | ≤ 0.2 |
| LVWS | ≤ 0.2 |
| AGVD | ≤ 0.2 |
| VGAR | ≤ 0.2 |
| ETQW | ≤ 0.2 |
| DAVS | ≤ 0.2 |
| ENWS | ≤ 0.2 |
| TLPI | ≤ 0.2 |
| YQDS | ≤ 0.2 |
| QSTF | ≤ 0.2 |
| LHAR | ≤ 0.2 |
| PVFF | ≤ 0.2 |
| TGST | ≤ 0.2 |

| Variant | one-hybrid fitness for binding parS DNA |
| --- | --- |
| FMQG | ≤ 0.2 |
| WSNT | ≤ 0.2 |
| IVKC | ≤ 0.2 |
| WFHS | ≤ 0.2 |
| HPVG | ≤ 0.2 |
| LGHA | ≤ 0.2 |
| GCHG | ≤ 0.2 |
| LAKW | ≤ 0.2 |
| KMWD | ≤ 0.2 |
| PSQA | ≤ 0.2 |
| QYGL | ≤ 0.2 |
| YARH | ≤ 0.2 |
| MDNT | ≤ 0.2 |
| ADKD | ≤ 0.2 |
| QNVG | ≤ 0.2 |
| KTYH | ≤ 0.2 |
| THNW | ≤ 0.2 |
| PHHA | ≤ 0.2 |
| MNRQ | ≤ 0.2 |
| QFEE | ≤ 0.2 |
| RRFT | 0.623 |
| QRIT | ≤ 0.2 |
| GATG | ≤ 0.2 |
| RFST | 0.841 |

| Variant | one-hybrid fitness for binding parS DNA |
| --- | --- |
| PGSN | ≤ 0.2 |
| MCIC | ≤ 0.2 |
| RKEF | ≤ 0.2 |
| MCYT | ≤ 0.2 |
| DHTM | ≤ 0.2 |
| SIQG | ≤ 0.2 |
| KGAH | ≤ 0.2 |
| RDGC | ≤ 0.2 |
| SLEM | ≤ 0.2 |
| DHNA | ≤ 0.2 |
| FPVT | ≤ 0.2 |
| WVHC | ≤ 0.2 |
| SIFQ | ≤ 0.2 |
| VRPI | ≤ 0.2 |
| AEHM | ≤ 0.2 |
| TLPR | ≤ 0.2 |
| MKCY | ≤ 0.2 |
| AHMG | ≤ 0.2 |
| PEKR | ≤ 0.2 |
| ISCS | ≤ 0.2 |
| QSQK | ≤ 0.2 |
| RGAT | 0.524 |
| GYQM | ≤ 0.2 |
| HCLC | ≤ 0.2 |

| Variant | one-hybrid fitness for binding parS DNA |
| --- | --- |
| LPNQ | ≤ 0.2 |
| CLKS | ≤ 0.2 |
| MVAV | ≤ 0.2 |
| QANV | ≤ 0.2 |
| AVCE | ≤ 0.2 |
| HACL | ≤ 0.2 |
| ALQM | ≤ 0.2 |
| CGSW | ≤ 0.2 |
| HSQK | ≤ 0.2 |
| WMAR | ≤ 0.2 |
| EVQG | ≤ 0.2 |
| QWTA | ≤ 0.2 |
| WQST | ≤ 0.2 |
| LCNS | ≤ 0.2 |
| QMQN | ≤ 0.2 |
| SMKD | ≤ 0.2 |
| DENK | ≤ 0.2 |
| SFLH | ≤ 0.2 |
